Values joined by “and” are separate entries in the source; they are usually repeats but may differ in a detail not shown here. Equal values may be shown once. Read-outs that look alike come from different tables or passages of the source.
What was measured:
[1] = tested on: cells expressing markers characteristic of the pancreatic endocrine lineage; assay: Screening of EMD Kinase Inhibitor Library I for MAFA expression, real-time PCR (Example 10); assay type: cell-based, human; conditions: 2.5 μM; for Gene Induction vs. H1: MAFa: days 1, 3, 5 of stage 5, fold increase versus untreated H1 human embryonic stem cells
[2] = tested on: cells expressing markers characteristic of the pancreatic endocrine lineage; assay: Summary of kinase inhibitor screens: MAFA induction and toxicity (Example 12); assay type: cell-based, human; conditions: for induction of MAFA expression (in words): summary of the screens
[3] = tested on: cells expressing markers characteristic of the pancreatic endocrine lineage; assay: Screening of EMD Kinase Inhibitor Library II for MAFA expression, real-time PCR (Example 11); assay type: cell-based, human; conditions: for Fold Induction of MAFA expression, fold vs. control: 2.5 μM, days 1, 3, 5 of stage 5
[4] = tested on: cells expressing markers characteristic of the pancreatic endocrine lineage; assay: Screening of BIOMOL Kinase Inhibitor Library, real-time PCR (Example 7); conditions: Homo sapiens, 144 h
[5] = tested on: cells expressing markers characteristic of the pancreatic endocrine lineage; assay: Genistein treatment on days 1, 3 and 5 of stage 5, mRNA expression by real-time PCR (Example 12)

COc1cc2c(cc1OC)-c1[nH]nc(Nc3cccc(F)c3)c1C2
increase in MAFA expression, fold higher than vehicle treated controls [1]: at least 2.5 fold | Gene Induction vs. H1: MAFa [1]: 5.5 fold | induction of MAFA expression (in words) [2]: induction of MAFA expression

NC(=O)c1ccc(-c2nc(-c3ccc4c(c3)OCCO4)c(-c3ccccn3)[nH]2)cc1 [Casein Kinase I Inhibitor, D4476]
Fold Induction of MAFA expression, fold vs. control [3]: 4.5 fold and 5.7 fold

N#CC(=C(N)Sc1ccc(N)cc1)c1ccccc1C(F)(F)F [MEK1/2 Inhibitor]
Fold Induction of MAFA expression, fold vs. control [3]: 4.5 fold and 4.92 fold | induction of MAFA expression (in words) [2]: induction of MAFA expression

O=C1Nc2ccc3ncsc3c2/C1=C/c1cnc[nH]1 [PKR Inhibitor]
Gene Induction vs. H1: MAFa [1]: 24.6 fold | induction of MAFA expression (in words) [2]: induction of MAFA expression

Nc1nc(Nc2ccc(S(N)(=O)=O)cc2)nn1C(=S)Nc1c(F)cccc1F [PubChem ID#5330812, 5-Amino-3-((4-(aminosulfonyl)phenyl)amino)-N-(2,6-difluorophenyl)-1H-1,2,4-triazole-1-carbothioamide]
Fold Induction of MAFA expression, fold vs. control ([3]; listed as Cdk1/2 Inhibitor III): 8.2 fold | fold induction at 2.5 µM ([3]; Homo sapiens, read-out: Fold Induction of MAFA expression, fold vs. control, 2.5 μM, days 1, 3, 5 of stage 5): 4.5 | toxicity (in words) [2]: less toxicity | induction of MAFA expression (in words) [2]: induce MAFA

COc1ccc2c(c1)/C(=C/c1cnc[nH]1)C(=O)N2 [SU9516]
toxicity (in words) [2]: less toxicity | induction of MAFA expression (in words) [2]: induce MAFA

CN[C@@H]1C[C@H]2O[C@@](C)([C@@H]1OC)n1c3ccccc3c3c4c(c5c6ccccc6n2c5c31)C(=O)NC4 [Well B6, Staurosporine]
fold induction at 4 µM ([4]; read-out: Ratio vs. Control: Insulin to Glucagon, 4 μM, six days): 1.6 | fold induction at 4 µM ([4]; read-out: Ratio vs. Control: MAFA to Arx4, 4 μM, six days): > 10 | toxicity (in words) ([2]; at concentrations effective for MAFA induction, compared with staurosporine): cytotoxic at effective concentrations | induction of MAFA expression (in words) [2]: can effectively induce MAFA

O=c1c(-c2ccc(O)cc2)coc2cc(O)cc(O)c12 [Well F11, Genistein]
fold induction at 4 µM ([4]; read-out: Ratio vs. Control: Insulin to Glucagon): 0.8 | fold induction at 4 µM ([4]; read-out: Ratio vs. Control: MAFA to Arx4): 1.9 | glucagon expression versus untreated controls ([5]; 10 ng/ml): increased expression | glucagon expression ([5]; 100 ng/ml dose): loss | insulin expression ([5]; 100 ng/ml dose): loss | somatostatin expression ([5]; 100 ng/ml dose): loss | toxicity ([5]; 100 ng/ml dose): significant toxicity | MAFA expression versus untreated controls ([5]; 10 and 30 ng/ml): increased expression | insulin expression versus untreated controls ([5]; 10 and 30 ng/ml): increased expression | somatostatin expression versus untreated controls ([5]; 10 and 30 ng/ml): increased expression

Akt Inhibitor IV
Gene Induction vs. H1: MAFa [1]: 45.7 fold | induction of MAFA expression (in words) [2]: induction of MAFA expression
